Measured values taken from PubChem BioAssay AID1159614 (National Center for Advancing Translational Sciences (NCATS), 2016).
The whole screen tested about 45,000 compounds, of which about 65 (0.1%) were called active. The call rests on the fitted dose curve; in most records, active means well fitted activation curve with a large enough effect; inconclusive means small, poorly fitted or top-dose-only effect; inactive means no such curve, though single readings can be large or run the other way. The list shows a part of the results.

target: Galactocerebrosidase (Homo sapiens) (UniProt P54803); experiment: A Novel Cell-Based Assay to Identify Small Molecules for B -Galactocerebrosidase; settings: 145M-Twi-hGALC-G270D cells (Twitcher mouse brain line with human GALC G270D), HMU-beta-Gal fluorescence, 48 h; series mostly up to 57.5 µM; activation: at the top concentration; further: 0% is about no effect; nearly all actives have a fitted effect of over 65% in size
Summary of the method: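 Fluorogenic HMU-b-Gal hydrolysis (0.1 mM final, pH 5.2 citrate-phosphate with 1 mg/mL sodium taurocholate; carbonate stop buffer) measures mutant GALC activity after compound treatment of live 145M-Twi Twitcher brain cells stably carrying human GALC-G270D, with wild-type GALC line alongside; activation sought.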

Sequence of UniProt P54803 (P54803 whole entry, looked up): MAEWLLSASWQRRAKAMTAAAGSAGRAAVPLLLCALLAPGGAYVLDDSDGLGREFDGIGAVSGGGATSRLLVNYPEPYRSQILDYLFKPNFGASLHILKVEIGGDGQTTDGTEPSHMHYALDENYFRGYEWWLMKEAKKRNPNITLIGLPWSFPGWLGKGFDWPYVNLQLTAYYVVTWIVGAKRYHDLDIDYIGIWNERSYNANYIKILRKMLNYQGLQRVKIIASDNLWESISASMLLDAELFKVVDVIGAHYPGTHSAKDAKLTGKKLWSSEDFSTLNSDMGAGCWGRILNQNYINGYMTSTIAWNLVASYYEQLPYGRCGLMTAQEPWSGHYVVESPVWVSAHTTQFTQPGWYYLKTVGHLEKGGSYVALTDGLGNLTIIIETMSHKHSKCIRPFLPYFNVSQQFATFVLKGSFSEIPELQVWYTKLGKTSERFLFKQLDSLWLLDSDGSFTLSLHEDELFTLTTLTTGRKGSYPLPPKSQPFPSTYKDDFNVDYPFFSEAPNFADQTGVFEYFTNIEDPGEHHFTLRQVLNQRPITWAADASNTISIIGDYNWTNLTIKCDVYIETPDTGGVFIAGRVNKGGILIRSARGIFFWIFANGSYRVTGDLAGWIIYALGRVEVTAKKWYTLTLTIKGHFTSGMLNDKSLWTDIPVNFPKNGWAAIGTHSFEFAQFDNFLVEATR

activation, inactive:
Cc1ccc(NC(=O)Cn2c(-c3ccc4c(c3)OCO4)cn(-c3ccccc3)c2=O)cc1C -14.7%
CCc1ccc(NC(=O)c2ccc3c(c2)nnn3CC)cc1 -3.31%
COc1ccc(-c2nn(C)c3sc(C(=O)Nc4cccc(F)c4)cc23)cc1OC -4.8%
Cc1c(Cl)cccc1-n1ncc(C(=O)Nc2ccc3c(c2)OCCO3)c1C1CCN(C(=O)OC(C)(C)C)CC1 3.63%
CCOc1ccc(-c2nc(SC(C(C)=O)C(=O)N(C)C)c3c(=O)n(C)c(=O)n(C)c3n2)cc1 (configuration not stated) -8.12%
CCN(CC)S(=O)(=O)c1ccc2c(c1)N(CC(=O)N1CCN(c3cccc(C(F)(F)F)c3)CC1)C(=O)CO2 -11.8%
Cc1ccccc1OCC(=O)OCc1cc(=O)n2ccsc2n1 -6.89%
Cc1ccc2cc3cc(C(=O)Nc4ccc(F)cc4Cl)oc3nc2c1 3.34%
Cc1ccccc1CNC(=O)C1CCN(c2nnc(C)c3c(C)n(-c4ccccc4)nc23)CC1 -13.7%
CCc1ccc(-c2nc3ccc(Br)cc3c(C(=O)O)c2C)s1 -10.4%
O=C(Cn1c(=O)n(Cc2ccc3c(c2)OCO3)c(=O)c2oc3ccccc3c21)Nc1ccccc1 -2.5%
CSc1ccc(CCNC(=O)C2CCN(c3nc4ccccc4nc3C(F)(F)F)CC2)cc1 -5.87%
COc1cc(-c2noc(-c3cc4cc(F)ccc4oc3=O)n2)cc(OC)c1OC -6.87%
CCc1nnc(NC(=O)c2cc(=O)c3cc(C)c(C)cc3o2)s1 -30.3%
CN1C(=O)C2(c3ccccc31)N(c1ccccc1)C(=O)CS2(=O)=O (configuration not stated) -23.5%
CCn1c(C(=O)NCc2cccc(Br)c2)cc2oc3ccccc3c21 -7.57%
COC(=O)c1ccc(NC(=O)c2c(NCc3ccc(C)o3)sc3c2CCCC3)cc1 -15%
C[C@@H]1CCN(C(=O)[C@H](CCCN=C(N)N)NS(=O)(=O)c2cccc3c2NC[C@H](C)C3)[C@@H](C(=O)O)C1 -14.8%
Cc1cc(C)c2oc(C(=O)Nc3sc4c(c3C(=O)NCc3ccco3)CCC4)cc(=O)c2c1 -13.2%
CN1CCN(C(=O)C(=O)Nc2c3c(nn2-c2ccc(F)cc2)CSC3)CC1 -8.18%
Cc1ccc(C)c(CN2C(=O)c3ccccc3S(=O)(=O)c3ccc(C(=O)Nc4ccccc4C(F)(F)F)cc32)c1 -9.42%
Cc1ccc(NC(=O)/C=C/c2ccccc2)c(Br)c1 -4.92%
COc1ccc(-c2nc3scc(CCNS(=O)(=O)c4c(C)noc4C)n3n2)cc1 -5.76%
COc1ccc(N2CCN(C(=O)Cn3cnc4nc5c(cc4c3=O)CCCC5)CC2)cc1 -7.85%
Cc1ccc(S(=O)(=O)NCCc2nnc3ccc(SCc4ccccc4C)nn23)cc1 -4.45%
COc1ccc(OC)c(NC(=O)CSc2c3c(nc4ccccc24)CCCC3)c1 -12.7%
CCOC(=O)c1cccc(NC(=O)c2cc(CN3CCCC3)on2)c1 -13.3%
COc1ccc(/C=C\c2onc(C)c2S(=O)(=O)N2CCC(C(=O)Nc3ccccc3OC)CC2)cc1 -14.9%
CCc1nn(CCCC(=O)NCc2ccccc2Br)c(=O)c2cc3occc3n12 -9.23%
Cc1ccc(OC(=O)c2cc(-c3ccc4c(c3)OCCO4)on2)c(C)c1 -4.08%
COc1ccccc1OC(C)C(=O)NCC1(N2CCOCC2)CCCCC1 (configuration not stated) 14.3%
Cc1ccc(Cn2cccc2C2=NC(C)(C)CO2)cc1 -13.7%
CC1CCN(S(=O)(=O)c2ccc3c(c2)N(CC(=O)NC(C)C)C(=O)CS3)CC1 -6.61%
Cc1ccc(OCC(=O)NCC2(N3CCN(C)CC3)CCCCC2)cc1C -11.7%
CCCCOc1ccc(-c2nonc2NC(=O)c2ccco2)cc1 -15.7%
COc1ccc(NC(=O)CCNS(=O)(=O)c2cccc3nonc23)cc1 -7.66%
CCCC(=O)N1c2ncnn2C2(CCCCC2)[C@@H]2CCCC[C@@H]21 -12.9%
COC(=O)c1scc(-c2ccc(C)cc2)c1S(=O)(=O)Nc1cccc(C(F)(F)F)c1 -11.1%
CCn1cc(C(=O)OCC(=O)Nc2cc(C)cc(C)c2)c(=O)c2ccc(C)nc21 -10.8%
COc1ccc(CCNC(=O)c2cc(-c3ccccc3)nc3ccccc23)cc1OC -29.1%
CCC(=O)N1CCc2cc(S(=O)(=O)NCCC(=O)Nc3ccc(OC)c(Cl)c3)ccc21 -12.4%
CCOc1ccc(CC(=O)Nc2nnc3n2CCS3)cc1 -7.05%
CC(C)c1nnc(N2C(=O)c3oc4ccccc4c(=O)c3C2c2cccc(O)c2)s1 (configuration not stated) -12.9%
CCc1nnc2c(NCc3ccccc3OC)nc3ccccc3n12 0.411%
O=C(CSc1cn(CC(=O)N2CCCCCC2)c2ccccc12)Nc1ccccc1F -5.57%
O=C(CSc1nc2ccccc2c(=O)n1CCC(=O)NC1CCCCC1)Nc1ccccc1Cl -18.7%
COC(=O)c1sc2cccc(F)c2c1S(=O)(=O)Nc1cc(OC)cc(OC)c1 -20.9%
C[C@@H](O)[C@H]1C(=O)N2C(C(=O)O)=C(S[C@@H]3CN[C@H](CNS(N)(=O)=O)C3)[C@H](C)[C@H]12 -10.4%
Cc1nn(CCCC(=O)NCc2ccccc2)c(=O)c2nn(-c3ccccc3)c(C)c12 -17.4%
Cc1cc2c(cc1S(=O)(=O)N1CCC(C)CC1)OCC(=O)N2 -18.3%
O=C(COc1ccccc1)Nc1ccc(S(=O)(=O)N(Cc2ccccc2)c2ccccc2)cc1 -20.3%
Cc1c(C(=O)NCc2ccc(N(C)C)cc2)oc2c1-c1nn(Cc3cccc(Cl)c3)cc1CC2 -21.1%
COC(=O)CNC(=O)C(Cc1ccccc1)NS(=O)(=O)c1ccc2c(c1)c(=O)n(C)c(=O)n2C (configuration not stated) -2.62%
COCCN1Cc2cccc(C(=O)Nc3ccc(C)cc3C)c2C1=O -8.84%
CCN(C(=O)C1CCN(S(=O)(=O)c2ccc3c(c2)CCCN3C(=O)C2CCC2)CC1)c1cccc(C)c1 -7.71%
Cc1ccc(NC(=O)Cn2c(=O)n(CCCCCC(=O)NCc3ccc(F)cc3)c(=O)c3sccc32)c(C)c1 0.38%
Cc1c(Cl)cccc1NC(=O)c1cnc2sc(N3CCCC3)nn2c1=O -5.05%
Cc1ccc(CNC(=O)c2ccc3c(c2)N(Cc2ccccc2F)C(=O)c2ccccc2S3(=O)=O)cc1 -14%
O=S(=O)(c1ccc2ccccc2c1)n1nc(-c2ccco2)nc1NCc1cccc(Cl)c1 -16.5%
COc1cccc(CNC(=O)c2cnc(N3CCCC3)nc2C)c1 -5.69%
COc1ccc(S(=O)(=O)c2cn(C)c3cc(N4CCCC4)c(F)cc3c2=O)cc1 -8.57%
Cc1cc(C)cc(NC(=O)Cn2c(=O)oc3cc(S(=O)(=O)N4CCCC4)ccc32)c1 -7.34%
COc1ccc(-c2nc(-c3ccccc3)c(-c3ccccc3)[nH]2)cc1Br -12.7%
Oc1c(I)cc(Cl)c2cccnc12 -9.19%
Cc1ccc(-c2nnc(SCC(=O)N3CCc4ccccc43)o2)cc1 -18%
CCCC12CN3CC(CCC)(CN(C1)C3c1c[nH]c3ccccc13)C2=O (configuration not stated) -15.9%
CCOc1ccc(CCNC(=O)Cn2nnc(-c3ccc(OC)c(OC)c3)n2)cc1OCC -24.3%
CN1CCN(C(CNC(=O)C(=O)Nc2ccc(F)cc2F)c2ccc3c(c2)OCO3)CC1 (configuration not stated) -11.2%
CC(C)Cn1cnc2c1c(=O)n(C)c(=O)n2C -29.2%
CC(C)Oc1ccc(CNS(=O)(=O)c2cnc(N)nc2)cc1 1.83%
CCOc1cc(CNCCSc2nnnn2-c2ccccc2)cc(Cl)c1OC -7.14%
O=C(CN1C(=O)C2(SCC(=O)N2c2ccccc2)c2ccccc21)NCc1ccccc1Cl (configuration not stated) -25.7%
O=C(NC1CCCCC1)c1ccc2c(c1)N(Cc1ccccc1)C(=O)c1ccccc1S2 -13.3%
CSc1nc(-c2ccc(F)cc2)nc2c1Cc1c(CO)cnc(C)c1O2 -14.3%
CCCCNc1nc(Oc2ccc(=O)n(C)n2)nc(N(C)C)n1 -9.31%
CCCc1nn2c(=O)cc(COC(=O)c3ccc(NC(=O)C(C)Oc4ccccc4)cc3)nc2s1 (configuration not stated) -6.74%
COc1cc(NC(=O)c2nnn(CC(=O)Nc3ccccc3)c2N)cc(OC)c1 -0.113%
Cc1ccc2nc(-c3ccc(NC(=O)COc4c(C)ccc(C)c4C)cc3)sc2c1 -14.7%
COc1ccccc1-c1noc(CSc2nc3ccc(C)cc3[nH]2)n1 -16.2%
O=C(CSc1cn(CC(=O)N2CCCCC2)c2ccccc12)Nc1ccccc1F -6.03%
COc1cc(NC(=O)CCS(=O)(=O)c2nc(-c3cccs3)cc(C(F)(F)F)n2)cc(OC)c1OC -22.3%
COc1ccc(C(=O)c2cn(Cc3ccc(C)cc3)c3cc4c(cc3c2=O)OCO4)cc1 -17.6%
CCOc1ccccc1NC(=O)CSc1nccn1-c1ccc(Cl)cc1 1.15%
Cc1c(Cl)cccc1NC(=O)CCn1c(=O)c2cccn2c2ccccc21 -10.5%
CC(CNC(=O)C1CCN(Cc2cc3ccccc3n2Cc2ccccc2)CC1)c1ccccc1 (configuration not stated) -4.82%
Cc1ccc2c(CC(=O)Nc3ccccc3C(F)(F)F)coc2c1C -22.6%
COc1ccc(Cl)cc1NC(=O)c1cc2c(s1)-c1ccccc1OC2 -9.32%
CCc1ccc(OC(C)C(=O)Nc2c(C(=O)c3ccccc3)oc3ccccc23)cc1 (configuration not stated) -14.8%
COCCNC(=O)CCc1nc2cccnc2n1Cc1ccc(OC)cc1 -14.7%
COc1cccc(C2C(C(=O)Nc3ccccc3)=C(C)Nc3nc(-c4ccccc4)nn32)c1 (configuration not stated) 1.17%
COc1ccc(OC)c(NC(=O)CSc2cn(CC(=O)N3CCOCC3)c3ccccc23)c1 -10.2%
CS(=O)(=O)N(CC(=O)NCCSc1ccccc1)c1cc(C(F)(F)F)ccc1Cl -0.41%
Oc1c(Br)cc(Br)cc1-c1nc2ccccc2s1 10.9%
COc1ccc(-c2noc(-c3ccc(NC4CCCC4)c([N+](=O)[O-])c3)n2)cc1 -24.1%
CCCN(CCC)C(=O)C1CCCN(S(=O)(=O)c2ccc3c(c2)oc(=O)n3C)C1 (configuration not stated) -3.7%
Cc1ccc(-c2nc(CS(=O)CC(=O)N3CCN(c4ccccc4)CC3)c(C)o2)cc1 (configuration not stated) -16.5%
O=C(c1ccccc1)c1ccccc1NC(=O)c1ccccc1C(=O)O -10.6%
